# Assay results published in PubChem BioAssay AID2451 (National Center for Advancing Translational Sciences (NCATS), 2010).
# The campaign covered roughly 290,000 compounds. About 2,100 (0.72%) were called active. Inconclusive means that the source gave no clear call. Such entries were picked first, then a sample of the others. Calls come from the whole dose curve; as a rule, active = well fitted inhibition curve with a large enough effect; inconclusive = small, poorly fitted or top-dose-only effect, or effect the other way; inactive = flat fitted curve, though single readings scatter. A potency beside an inconclusive call is a rough fit, not a confirmed value.
# Biological target: Fructose-bisphosphate aldolase (Giardia intestinalis (strain ATCC 50803 / WB clone C6)) (UniProt A8B2U2)
# UniProt A8B2U2, sequence (A8B2U2 whole entry, looked up): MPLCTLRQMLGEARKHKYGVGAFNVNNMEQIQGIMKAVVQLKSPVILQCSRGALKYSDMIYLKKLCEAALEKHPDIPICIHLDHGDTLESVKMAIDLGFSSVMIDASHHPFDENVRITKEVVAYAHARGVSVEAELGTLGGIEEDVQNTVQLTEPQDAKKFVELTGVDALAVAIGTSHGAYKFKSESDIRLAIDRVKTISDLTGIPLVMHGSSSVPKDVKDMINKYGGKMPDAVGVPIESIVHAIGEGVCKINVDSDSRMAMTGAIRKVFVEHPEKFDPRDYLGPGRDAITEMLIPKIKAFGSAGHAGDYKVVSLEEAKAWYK
# Assay: qHTS Assay for Inhibitors of Fructose-1,6-bisphosphate Aldolase from Giardia Lamblia; note: nearly all actives have a fitted effect of over 55% in size
# Conditions: purified Giardia FBPA; series mostly up to 59.6 µM
# Summary of the method: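 40 nM FBPA preincubated 10 min at RT with compound (up to 57.5 uM final), then substrate plus GAPDH/TPI/NAD/arsenate coupling and diaphorase/resazurin added. Fluorescence read after 20 min at RT, 525/598 nm.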
# Potency is the fitted concentration of half-maximal effect; tags give direction and shape of the fitted curve.
row,SMILES,Potency
1,CC(C)CC(=O)N1CCN(Cc2cccc([N+](=O)[O-])c2)CC1,"inconclusive: 19.9 µM [inhibitor, partial curve]"
2,O=C(NC1CCCCCC1)C(=S)NC1CCCCC1,active: 17.7 µM
3,c1cc[n+]2c(c1)-c1cccc[n+]1CC2,inactive
4,COc1ccc(NC(=S)NCCc2ccc(S(N)(=O)=O)cc2)c(OC)c1,"inconclusive: 15.8 µM [inhibitor, single point]"
5,Cc1ccc2[nH]c3c(c2c1)CCc1cn[nH]c1-3,"inconclusive: 28.1 µM [inhibitor, single point]"
6,Cc1cc(C)c(OCCOCCN2CCN(C)CC2)c(Cl)c1,"inconclusive: 17.8 µM [inhibitor, partial curve]"
7,O=C1C(Cl)=CC(=Nc2ccc(O)cc2)C=C1Cl,"inconclusive: 31.5 µM [inhibitor, partial curve, poor fit]"
8,CCCS(=O)(=O)N1CCN(c2ccccn2)CC1,"inconclusive: 31.5 µM [inhibitor, single point]"
9,Cc1ccc2cn[nH]c2c1[N+](=O)[O-],inactive
10,CCOc1ccc(OCCOCCN2CCc3ccccc3C2)cc1,"inconclusive: 15.8 µM [inhibitor, single point]"
11,CCN(CC)c1ccc(C(=C2C=CC(=[N+](CC)Cc3cccc(S(=O)(=O)[O-])c3)C=C2)c2ccc(N(CC)Cc3cccc(S(=O)(=O)O)c3)cc2)cc1,"inconclusive: 15.8 µM [inhibitor, partial curve]"
12,CCC(=O)OC1(C)C(=O)C=C2C=C(c3ccsc3)OC=C2C1=O (stereo not drawn),"inconclusive: 17.7 µM [inhibitor, single point]"
13,Cc1ccc(CC2C(=O)N(c3cc(Cl)ccn3)C(=O)C2C)cc1 (stereo not drawn),inactive
14,COC(=O)Cc1csc(Nc2ccccc2Cl)n1,inactive
15,COC1=CC(=O)C(C(=O)c2ccccc2)=CC1=O,active: 1.12 µM
16,COc1ccc(C(=O)N[C@H](C(=O)NCc2ccco2)C(C)C)cc1,inactive
17,Cc1cc(C(=O)Nc2ccc(Cl)cc2)c(C)n1-c1ccccc1,"inconclusive: 17.7 µM [inhibitor, single point]"
18,COc1ccc2cc(-c3cc(C(=O)O)c4ccccc4n3)ccc2c1,inactive
19,CCN(CC)S(=O)(=O)c1cccc(NC(=O)c2ccc(-n3nc(C)cc3C)cc2)c1,inactive
20,O=C(C1CCCN(Cc2cccnc2)C1)N1CCCCC1 (stereo not drawn),"inconclusive: 17.7 µM [inhibitor, partial curve]"
21,CCOC(=O)Cc1c(C)nc2cc(-c3ccc(Cl)cc3)[nH]n2c1=O,inactive
22,CSc1nc2ccc(NC(=O)c3ccc(Cl)s3)cc2s1,inactive
23,COc1cccc(-n2cn[nH]c2=S)c1,"inconclusive: 6.29 µM [inhibitor, full curve]"
24,Cc1ccccc1N1C(=O)CC(N(O)c2ccccc2)C1=O (stereo not drawn),"inconclusive: 7.06 µM [activator, single point]"
25,CCCOc1ccc(N)cc1N,active: 0.397 µM
26,COc1ccc(CCN(C(=O)C(F)(F)F)C(C(=O)NC2CCCCC2)c2cccs2)cc1 (stereo not drawn),inactive

row,SMILES,Potency
1,CN(C)c1nnnn1-c1cccc(Oc2ncc(C(F)(F)F)cc2Cl)c1,"inconclusive: 15.8 µM [inhibitor, partial curve]"
2,CN1CCN(C(=S)NC(=O)c2cccc(S(=O)(=O)N(C)C)c2)CC1,"inconclusive: 19.9 µM [inhibitor, partial curve]"
3,Cc1ccc(-c2ccc(/C=N/NC(=O)CN3CCOCC3)o2)cc1[N+](=O)[O-],"inconclusive: 5.61 µM [inhibitor, partial curve]"
4,N#Cc1ccc(NC(=S)NC(=O)CCc2ccc(S(=O)(=O)N3CCOCC3)cc2)cc1,inactive
5,CN(C)c1cccc2c(S(=O)(=O)N3CCOCC3)cccc12,"inconclusive: 15.8 µM [inhibitor, partial curve]"
6,COC(=O)C(NC(C)=O)(Nc1nc2c(s1)CCCC2)C(F)(F)F (stereo not drawn),"inconclusive: 15.8 µM [inhibitor, single point]"
7,CCCCCn1c(=O)[nH]c2cc(C(=O)O)ccc2c1=O,"inconclusive: 9.98 µM [activator, partial curve]"
8,Cc1ccc(-n2c(C(C)C)nc3oc4ccccc4c(=O)c3c2=O)cc1,inactive
9,COc1ccccc1NC(=O)Nc1nn(C)c2cccc(N(C)C)c12,"inconclusive: 17.7 µM [inhibitor, partial curve]"
10,Cc1ccc(S(=O)(=O)Oc2ccc3ccc(O)cc3c2)cc1,inactive
11,O=c1cc(-c2ccccc2Cl)c2c([nH]1)CCC2,"inconclusive: 19.9 µM [inhibitor, single point]"
12,Cc1cc(C)c(NC(=S)N(CCc2ccncc2)C(C)C)c(C)c1,active: 9.98 µM
13,O=C1Cc2ccccc2C(=O)N1Cc1ccccc1,"inconclusive: 6.29 µM [inhibitor, partial curve]"
14,O=C(CSc1nnc(-c2ccc(C(F)(F)F)cn2)o1)Nc1ccccc1Cl,"inconclusive: 17.7 µM [inhibitor, single point]"
15,c1ccc(C2=Nn3c(nnc3-c3ccncc3)SC2)cc1,inactive
16,COc1cccc(Nc2ncc3nc(-c4ccccc4)c(=O)n(C[C@H]4CCCO4)c3n2)c1,inactive
17,Cc1ccc(CNC(=O)c2nccnc2C(=O)O)cc1,inactive
18,Cc1cc(C)n(-c2ccc(NN=C(C#N)C#N)cc2)n1,"inconclusive: 4.46 µM [inhibitor, full curve]"
19,CC(=O)c1cccc(N=Cc2c(O)c3ccccc3oc2=O)c1,"inconclusive: 31.6 µM [inhibitor, partial curve]"
20,CCCCNC(=O)Nc1cc(C(F)(F)F)c[nH]c1=O,"inconclusive: 35.4 µM [inhibitor, single point]"
21,CCCc1cc(=O)[nH]c(SCC(=O)NC2CCCc3ccccc32)n1 (stereo not drawn),"inconclusive: 19.9 µM [inhibitor, partial curve]"
22,COc1ccc(OCc2nc(-c3ccc(F)c(F)c3)cs2)cc1,inactive
23,C[C@]12CCC(O)CC1=CCC1C2CC[C@]2(C)/C(=N\NC(N)=S)CCC12 (stereo partly drawn),"inconclusive: 20 µM [inhibitor, partial curve]"
24,CC(C)=CCC1=C(OCC(=O)O)C(=O)c2ccccc2C1=O,active: 1.26 µM
25,CCOC(=O)Cc1csc(NC(=S)NC(=O)C(C)(C)C)n1,"inconclusive: 19.9 µM [inhibitor, partial curve]"
26,COc1cc(C(C2=C(O)CC(C)(C)CC2=O)C2C(=O)CC(C)(C)CC2=O)cc(OC)c1OC (stereo not drawn),inactive

row,SMILES,Potency
1,CN(C)c1ccnc(N(Cc2ccccc2)Cc2ccccc2)c1C#N,inactive
2,COc1ccc(CN2CCNC(=O)C2CC(=O)N(C)Cc2ccccn2)cc1OC (stereo not drawn),"inconclusive: 8.89 µM [inhibitor, single point]"
3,Cn1c(-c2ccco2)n[nH]c1=S,"inconclusive: 14.1 µM [inhibitor, partial curve]"
4,Cc1noc(NC(=O)c2ccccc2C(F)(F)F)c1C#N,inactive
5,Cc1cc(C)c(S(=O)(=O)c2ccc(Cl)cc2C)c(Cl)n1,"inconclusive: 17.7 µM [inhibitor, single point]"
6,CC(=O)c1cccc(NC(=S)NC(=O)c2cccc(Cl)c2)c1,"inconclusive: 7.92 µM [inhibitor, partial curve]"
7,O=C(O)/C=C/C(=O)Nc1ccc(O)cc1,"inconclusive: 22.3 µM [inhibitor, partial curve]"
8,COc1ccc(-c2cc(C(=O)OC3CCOC3=O)c3ccccc3n2)cc1 (stereo not drawn),inactive
9,COc1ccc(NC(=O)C(=O)N/N=C(\C)CC(=O)Nc2cc(C)ccn2)c(OC)c1,inactive
10,COc1ccc(/C(O)=C(\C#N)c2nc3ccccc3n2C)cc1OC,"inconclusive: 11.2 µM [inhibitor, partial curve]"
11,CC(C)CC(N(C)C)C1(c2ccc(Cl)cc2)CCC1 (stereo not drawn),inactive
12,CN(C)CCCN(C(=O)/C=C/c1cccs1)c1nc2ccc(F)cc2s1,inactive
13,COc1ccc(N2C(=O)/C(=C/c3cccs3)C(=O)NC2=S)cc1,inactive
14,O=C(O)c1cc(NCc2c(F)cccc2Cl)ccc1N1CCOCC1,"inconclusive: 14.1 µM [inhibitor, partial curve]"
15,COc1cc2cc3c(N)c(C(=O)Nc4sc(C)c(C)c4C#N)sc3nc2cc1OC,"inconclusive: 3.15 µM [inhibitor, full curve]"
16,Cc1ccc(NC(=S)Nc2ccc(OC(F)F)c(Cl)c2)cc1F,inactive
17,COC(=O)N/N=C\c1c(C)nn(-c2ccccc2)c1Cl,inactive
18,O=C(Nc1ccc(Cc2ccncc2)cc1)c1ccc(Cl)c([N+](=O)[O-])c1,"inconclusive: 15.8 µM [inhibitor, partial curve]"
19,NCCNC[C@@H](N)CCCN=C(N)N[N+](=O)[O-],"inconclusive: 44.6 µM [inhibitor, single point]"
20,COc1ccc(CC(=O)NCc2n[nH]c(=S)n2-c2ccccc2OC)cc1,inactive
21,Cc1cccc(C)c1OCC(=O)N(Cc1ccc(N(C)C)cc1)C1CCS(=O)(=O)C1 (stereo not drawn),inactive
22,O=C(O)C1CSC(c2ccco2)N1 (stereo not drawn),"inconclusive: 15.8 µM [inhibitor, single point]"
23,COc1ccc(N=C2SC(CC(=O)Nc3ccccc3)C(=O)N2Cc2ccccn2)cc1 (stereo not drawn),"inconclusive: 19.9 µM [inhibitor, single point]"
24,CC(C)(C)N1NC2(CCCCC2)NC1=S,"inconclusive: 31.5 µM [inhibitor, single point]"
25,CCNc1ccc(C(=O)O)cc1N,inactive
26,O=C1C=CC2=C3c4cc(O)c(O)cc4C[C@]3(O)COC2=C1,"inconclusive: 17.7 µM [inhibitor, partial curve]"
